107 compounds from PubChem BioAssay AID1240 (Sanford-Burnham Center for Chemical Genomics, 2008) can be followed below.

In all, about 50,000 compounds went through this assay and about 800 (1.6%) showed an effect of 50% or more. This is one part of the list.

This assay addresses Bcl-2-like protein 10 (Homo sapiens) (UniProt Q9HD36). Kind of assay: Phenotype converters, Bcl-B/TR3 peptide binding displacement, primary biochemical FP (AID 1240).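 Also: 0% = Bcl-B with tracer peptide and DMSO and 100% = tracer peptide lacking Bcl-B.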 The settings on record: GST-Bcl-B / FITC-TR3 peptide fluorescence polarization; stronger effect = higher value; compound at 3.75 mg/L. On the technique in general: Fluorescence polarisation rises when a labelled molecule tumbles more slowly, as on binding a larger partner.
UniProt Q9HD36, sequence (Q9HD36 whole entry, looked up): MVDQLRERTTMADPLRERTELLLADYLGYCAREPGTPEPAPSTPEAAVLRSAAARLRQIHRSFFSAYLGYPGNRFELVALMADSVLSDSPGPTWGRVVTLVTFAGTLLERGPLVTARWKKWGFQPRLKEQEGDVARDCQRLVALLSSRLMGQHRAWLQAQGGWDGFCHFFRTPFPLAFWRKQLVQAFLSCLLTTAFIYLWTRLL
In the case of `Cc1cccc(N=Cc2ccc([N+](=O)[O-])s2)c1`, the displacement is 1.4%.

Regarding `CN(C)c1ccc(NC(=O)c2cc(Cl)ccc2Cl)cc1`, the displacement worked out at 5.1%.

`Cc1cccc(C(C)C)c1NC(=O)c1cc2ccccc2o1`: the displacement turned out to be 6.5%.

On to `COCCNC(=O)CN(c1ccccc1F)S(=O)(=O)c1ccc(C)cc1`, for which the displacement was -7%.

`O=C1C(=O)N(c2ccccc2)C(c2ccc3c(c2)OCO3)/C1=C(\O)c1ccc(Br)cc1` (configuration not stated): the displacement is -1%.

Turning to `COc1ccc(/C=C2\CCc3ccccc3C2=O)cc1OC`, the displacement was 4.7%.

Turning to `Cc1cc(OCC(=O)NCc2ccc(F)cc2)ccc1Br`, the displacement was -6.4%.

With `COC(=O)c1cc(NC(=O)c2cc3ccccc3oc2=O)cc(C(=O)OC)c1`, the displacement was found to be 3.6%.

On to `COCCCNC(=O)c1ccc(I)cc1`, for which the displacement was 12.1%.

Take `O=C1NC(=O)C(=Cc2ccccc2OCc2ccc(Cl)cc2Cl)C(=O)N1`: the displacement came to 2.1%.

As for `COc1ccc2c(c1)nc(SCC(=O)c1ccccc1)n2C`, the displacement is 1.8%.

For the compound `O=C1CC(c2ccc3c(c2)OCO3)CC2=C1C(c1cc3c(cc1Br)OCO3)Nc1ccccc1N2` (configuration not stated), the displacement was 9.4%.

Turning to `O=C(Nc1ccc(N2CCCCC2)cc1)c1ccc(-c2ccccc2)cc1`, the displacement was -0.9%.

Turning to `C=CCC(NCc1ccccc1)c1ccncc1` (configuration not stated), the displacement is -7.3%.

With `COc1ccc(/C=C(/C#N)C(=O)Nc2cccc(Br)c2)c(OC)c1`, the displacement is -8.7%.

With `CC1=C(C(=O)OC(C)C)C(c2ccc3c(c2)OCO3)C(C(=O)OC(C)C)=C(C)N1`, the displacement turned out to be 0.4%.

In the case of `COc1ccc([N+](=O)[O-])cc1NC(=O)CC(C)C`, the displacement was determined as 1.2%.

Regarding `O=C(N/N=C/c1ccc([N+](=O)[O-])o1)c1ccc(O)cc1`, the displacement came to 5.9%.

On to `CCC(=O)Nc1ccc(-c2nc3ncccc3o2)cc1`, for which the displacement was -3.3%.

Consider `Cc1cc(C)cc(NCc2ccco2)c1`, for which the displacement worked out at 1.9%.

For `Cc1ccccc1OCC(=O)Nc1ccc(O)c(-c2nc3ccccc3s2)c1`, the displacement turned out to be 3.1%.

Consider `O=C(CSc1nnc(-c2ccccc2)c(-c2ccccc2)n1)Nc1ccc(Cl)cc1`, for which the displacement was -0.9%.

As to `CC(C)(C)NC(=O)c1ccc(-c2ccc(Cl)cc2)o1`, the displacement turned out to be 7.5%.

Regarding `Cc1ccc(N2CC(C(=O)NCC(C)C)CC2=O)cc1` (configuration not stated), the displacement was -6.3%.

With `O=S(=O)(Oc1cccc2ccccc12)c1cc(Cl)ccc1Cl`, the displacement was determined as 7.4%.

For `O=C(CN(c1ccc(F)cc1)S(=O)(=O)c1ccccc1)Nc1ccc(Cl)cc1`, the displacement was 4.5%.

Regarding `Cc1cccc(OCC(=O)Nc2ccc(Cl)c(Cl)c2)c1`, the displacement was determined as 3.2%.

Take `Cc1ccc(Nc2nc3ccc(C)cn3c(=O)c2/C=N/O)cc1`: the displacement was 2.5%.

With `Cc1c(NC2=NC(C)(C)Cc3ccccc32)c(=O)n(-c2ccccc2)n1C`, the displacement was -4%.

As for `O=C(Nc1ccc(-c2nc3ccc(NC(=O)c4ccccc4[N+](=O)[O-])cc3[nH]2)cc1)c1ccccc1[N+](=O)[O-]`, the displacement was 11.8%.

Consider `O=C1Nc2c(S(=O)(=O)O)cc(S(=O)(=O)O)c3cccc1c23`, for which the displacement worked out at 4.7%.

For `COc1ccc(C2CC(=O)C3=C(C2)Nc2ccccc2NC3c2cccc(C(F)(F)F)c2)cc1OC` (configuration not stated), the displacement was -9.9%.

In the case of `COc1ccc(-n2c(O)c(/C=C3\C=CC=N3)c(=O)[nH]c2=O)cc1`, the displacement is 85.4%.

Take `O=c1[nH]c(/C=C/c2ccccc2O)c([N+](=O)[O-])c(=O)[nH]1`: the displacement was -6.5%.

With `c1ccc2c(c1)N1CCN=C1N2CCN1CCOCC1`, the displacement is -1.4%.

Regarding `Cc1ccc2c(C)nc(Nc3nc(C)c(C)c(=O)[nH]3)nc2c1`, the displacement is -1%.

In the case of `Cc1cc([N+](=O)[O-])ccc1-c1ccc(C(=O)Nc2ccc(O)c(-c3nc4ccccc4s3)c2)o1`, the displacement came to 0.9%.

Consider `CCOC(=O)c1c(NC(=O)c2cc(OC)c(OC)c(OC)c2)sc(C)c1C`, for which the displacement is -14.2%.

For `O=C(Nc1ccc(I)cc1)c1cc(-c2cccs2)nc2ccccc12`, the displacement was found to be 7.8%.

Consider `CCN(CC)C(=O)c1sc(NC(=O)c2cccc(F)c2)c(C(=O)OC(C)C)c1C`, for which the displacement is -1.8%.

For the compound `CN(C)c1cnn(-c2ccccc2)c(=O)c1N`, the displacement was -10.7%.

For the compound `O=C(c1ccc([N+](=O)[O-])cc1)c1ccc2c(c1)OCCCO2`, the displacement is 4.5%.

As to `COc1cccc(N2C(=O)c3ccc(C(=O)NN4C(=O)c5ccccc5C4=O)cc3C2=O)c1`, the displacement amounted to 13%.

As for `Fc1ccc(C2C=C(c3ccccc3)NC(=S)N2)cc1` (configuration not stated), the displacement was -12.5%.

For `CCCCOc1ccc(S(=O)(=O)N=Nc2c(O)[nH]c3ccc([N+](=O)[O-])cc23)cc1`, the displacement was 19.1%.

On to `O=C1NC(=S)N(c2ccccc2)C(=O)/C1=C/c1cc(Cl)cc(Cl)c1O`, for which the displacement was 29.6%.

On to `CCOc1ccc(C(=O)NCCNc2ccc(Cl)cc2[N+](=O)[O-])cc1Br`, for which the displacement was 10.4%.

Turning to `CCOC(=O)c1c(NC(=O)c2ccc(F)cc2)sc2c1CC(C)(C)OC2`, the displacement was -11.3%.

As for `CCOc1ccccc1/C=C1/C(=O)NN(c2ccc(Br)cc2)C1=O`, the displacement was determined as 15.6%.

Consider `COc1ccc2nc(NC(=O)c3ccc(OC)c(Br)c3)sc2c1`, for which the displacement is 33.1%.

`NC(=O)c1ccccc1NC(=O)c1cc2ccccc2oc1=O`: the displacement was found to be 4.5%.

As to `COC(=O)c1ccccc1NC(=O)c1cc2nc(-c3ccccc3)cc(C)n2n1`, the displacement was 37.7%.

For the compound `O=C(Nc1ccc(Nc2ccccc2)cc1)c1ccccc1I`, the displacement is -8.7%.

As for `O=C(NC1CCCCC1)N1CCN(c2cccc(Cl)c2)CC1`, the displacement stood at 0.5%.

Consider `CC(Sc1ccc(Cl)cc1)C(=O)NC(C)c1ccccc1` (configuration not stated), for which the displacement was 1.7%.

As for `Cn1ccnc1/C=C(/OC(=O)c1ccccc1)c1ccccc1`, the displacement turned out to be 16.8%.

On to `Cc1ccnc(SCC(=O)N2c3ccccc3CCc3ccccc32)n1`, for which the displacement is -5.2%.

As for `COc1ccc(CC(=O)N2CCN(c3cccc(Cl)c3)CC2)cc1OC`, the displacement was found to be 2%.

Regarding `COc1ccc(CN2CCN(C(=O)c3cccc(F)c3)CC2)cc1Br`, the displacement is -11.5%.

Take `O=C(Nc1ccccc1Cl)c1cc(-c2ccco2)nc2ccccc12`: the displacement came to 3.3%.

As to `O=C1NC(=S)N/C1=C/c1ccc(Oc2ccc(C(F)(F)F)cc2[N+](=O)[O-])c(Cl)c1`, the displacement came to 88.3%.

On to `Cc1c(NC(=O)c2cc([N+](=O)[O-])ccc2Cl)cccc1-c1nc2ccccc2s1`, for which the displacement came to 2.3%.

For `COc1cccc(N=C2c3ccccc3C(=O)C2c2cccc(Br)c2)c1` (configuration not stated), the displacement amounted to 5%.

For the compound `Cc1cccc(N2C(=O)/C(=C/C=C/c3ccccc3)SC2=S)c1C`, the displacement came out at 7.2%.

`Cc1cc(C(=O)NCCCn2ccnc2)ccc1[N+](=O)[O-]`: the displacement is 3.3%.

`CS(=O)(=O)N(CC(=O)Nc1cccc(C(F)(F)F)c1)c1cccc(Cl)c1`: the displacement was found to be 8.7%.

For `O=C1N/C(=N\Nc2ccccc2)S/C1=C\c1cccc(Br)c1`, the displacement is -1.1%.

Take `O=C(Nc1ccc(-c2nc3ncccc3o2)cc1)c1ccc(-c2ccc(Br)cc2)o1`: the displacement was 88.1%.

With `CN(CCO)C1=NS(=O)(=O)c2cc([N+](=O)[O-])ccc21`, the displacement was -6.2%.

Take `CCOC(=O)c1c(NC(=O)CCC(=O)OC)sc2c1CC(C)(C)SC2`: the displacement is -4.4%.

For `COc1cc(-c2c(C#N)c(N)nc(SC)c2C#N)cc(OC)c1OC`, the displacement is -1.7%.

Regarding `COc1ccc(CCNS(=O)(=O)c2ccc3ccccc3c2)cc1`, the displacement was 3%.

For the compound `CCOc1ccccc1N(CC(=O)N1CCC(C)CC1)S(=O)(=O)c1ccccc1`, the displacement is 1.7%.

As to `Cc1ccc(Cc2cnc(CN(C)C)c(O)c2)cc1`, the displacement was 19.4%.

`Nc1nnc(SCC(=O)NCCc2ccccc2)s1`: the displacement is -15.1%.

Consider `Cc1ccnc(NS(=O)(=O)c2ccc(NC(=O)c3cc(-c4ccc(Br)cc4)nc4ccccc34)cc2)n1`, for which the displacement came to 16%.

On to `O=C(N/N=C/c1cccn1-c1ccc([N+](=O)[O-])cc1)c1cc(-c2ccccc2)n[nH]1`, for which the displacement stood at 1.9%.

On to `COc1cccc2sc(NC(=O)/C=C/c3ccccc3)nc12`, for which the displacement was -0.2%.

With `COc1cccc(CN2CCN(C(=O)C(c3ccccc3)c3ccccc3)CC2)c1OC`, the displacement is -1%.

For `COc1ccc(/C(N)=N/OC(=O)Cc2ccc(Cl)cc2)cc1OC`, the displacement is -9.2%.

In the case of `O=C(O)CCSc1nc2ccc([N+](=O)[O-])cc2s1`, the displacement was -2.2%.

Turning to `COc1cccc(C2NC(=O)NC(C)=C2C(=O)Nc2cccc(Cl)c2)c1` (configuration not stated), the displacement is -15.5%.

Consider `COc1ccc(C2=NN(C(=O)CCC(=O)O)C(c3ccc(C)cc3)C2)cc1` (configuration not stated), for which the displacement was determined as 0%.

Regarding `O=C(O)CCCCCN1C(=O)C(=O)/C(=C(/O)c2ccc(F)cc2)C1c1ccc(Cl)cc1` (configuration not stated), the displacement was -3.3%.

Turning to `Cc1ccc(-c2ccc(/C=C3/SC(=O)NC3=O)o2)c(Br)c1`, the displacement is 5.6%.

For `Cc1nc2ccccc2n1C(=O)c1ccc(Cl)cc1[N+](=O)[O-]`, the displacement was determined as 4.5%.

Take `CCOC1=NC(C(F)(F)F)(C(F)(F)F)N=C(N=C(SC)SC)O1`: the displacement was determined as 5.5%.

With `COC(=O)C1=C(C(=O)OC)SC(=C2C(=S)C(C)(C)N(C(=O)c3ccc4ccccc4c3)c3ccccc32)S1`, the displacement is -4.1%.

For the compound `CCOc1ccc(/C=C2\SC(=S)N(CCC(=O)N3CCOCC3)C2=O)cc1`, the displacement amounted to 100%.

With `c1ccc(N2Cc3cc4c(cc3C2)CN(c2ccccc2)C4)cc1`, the displacement was -0.8%.

For the compound `COCCCNS(=O)(=O)c1c(C)cc(C)cc1C`, the displacement is -8.4%.

`Cc1cc(OCC(O)CNC(C)C)cc(C)c1Cl` (configuration not stated): the displacement amounted to 3.1%.

Take `C=CCOc1ccc(/C=C/C(=O)c2ccc(C)cc2)cc1`: the displacement was found to be 10.6%.

As for `O=C(c1ccccc1)N1CCN(c2cc(N3CCCCC3)c(F)cc2[N+](=O)[O-])CC1`, the displacement is -11%.

On to `O=C(CN1C2=NCCN2c2ccccc21)c1cccc([N+](=O)[O-])c1`, for which the displacement worked out at 5.1%.

Consider `Brc1ccc(CN2CCN(Cc3ccncc3)CC2)cc1`, for which the displacement came out at 1.1%.

Turning to `O=C(/C=C/c1ccc([N+](=O)[O-])cc1)Nc1ccc2c(c1)OCO2`, the displacement is -1.1%.

Take `COc1ccc(CCNC(=O)C(=O)Nc2cccc(Cl)c2Cl)cc1OC`: the displacement is 17.2%.

Regarding `CCOc1ccc(C(=O)Nc2c(C)cccc2C)cc1Br`, the displacement is -4.8%.

For the compound `O=C(Nc1ccc(Cl)c(Cl)c1)c1cccc([N+](=O)[O-])c1`, the displacement was -3.7%.

On to `O=C(O)/C=C/C(=O)Nc1ccc(-c2ccc(NC(=O)/C=C/C(=O)O)cc2)cc1`, for which the displacement turned out to be 14.8%.

In the case of `Nc1c(C(=O)C2CC2)sc2nc3c(cc12)CCCC3`, the displacement stood at 8.8%.

With `COc1ccc(CCNS(=O)(=O)c2cccc([N+](=O)[O-])c2)cc1`, the displacement was -2.2%.

Turning to `Cc1ccc(OCCOc2ccc(Br)cc2C=C2C(=O)NC(=S)NC2=O)cc1`, the displacement was -23.5%.

Consider `Cc1ccc(N=Cc2ccc(OC3CSC3)cc2)cc1C`, for which the displacement was -2.3%.

On to `Cc1ccc(NC(=O)CSc2ccc(Cl)cc2Cl)cc1`, for which the displacement worked out at 7.9%.

As for `O=C1NC2=Nc3ccccc3NC(c3ccccc3)=C2C(c2cccc3ncccc23)N1` (configuration not stated), the displacement came to 8.7%.
